From US20260184783A1 (Merck Sharp & Dohme, published 2026)

T1: human LAG-3 expressed on cells (human, UniProt P18627 23-525)
T1 sequence: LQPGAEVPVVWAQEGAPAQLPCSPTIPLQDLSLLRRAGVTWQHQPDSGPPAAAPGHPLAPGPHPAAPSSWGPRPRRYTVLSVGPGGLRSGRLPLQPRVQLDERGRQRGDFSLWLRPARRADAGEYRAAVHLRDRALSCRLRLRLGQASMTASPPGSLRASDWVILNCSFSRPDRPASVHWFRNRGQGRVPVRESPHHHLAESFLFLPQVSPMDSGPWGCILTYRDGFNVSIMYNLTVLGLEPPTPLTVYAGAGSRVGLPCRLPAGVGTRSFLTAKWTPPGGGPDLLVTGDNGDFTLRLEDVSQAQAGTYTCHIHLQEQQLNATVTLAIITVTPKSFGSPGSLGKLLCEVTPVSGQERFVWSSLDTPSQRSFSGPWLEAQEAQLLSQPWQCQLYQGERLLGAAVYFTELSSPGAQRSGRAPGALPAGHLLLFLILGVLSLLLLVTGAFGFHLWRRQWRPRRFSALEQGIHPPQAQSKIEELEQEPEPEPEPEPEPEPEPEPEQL

T2: extracellular domain of LAG-3 (1-477) fused to the EA subunit (human, UniProt P18627 23-477)
T2 sequence (looked up): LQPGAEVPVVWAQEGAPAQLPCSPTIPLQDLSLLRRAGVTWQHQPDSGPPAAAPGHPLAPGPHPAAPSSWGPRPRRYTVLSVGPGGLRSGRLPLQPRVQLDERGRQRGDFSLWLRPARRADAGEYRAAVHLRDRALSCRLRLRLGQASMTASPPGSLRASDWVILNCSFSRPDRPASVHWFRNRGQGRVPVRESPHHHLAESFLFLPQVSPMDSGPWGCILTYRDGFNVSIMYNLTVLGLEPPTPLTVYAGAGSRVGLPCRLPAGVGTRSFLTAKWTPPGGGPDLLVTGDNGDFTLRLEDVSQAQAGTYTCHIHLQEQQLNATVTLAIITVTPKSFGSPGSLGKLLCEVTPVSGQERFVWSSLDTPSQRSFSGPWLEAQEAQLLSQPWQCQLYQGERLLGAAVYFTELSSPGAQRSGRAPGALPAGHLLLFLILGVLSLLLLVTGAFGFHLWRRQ

T3: rhesus/cynoLAG-3 expressed on CHO cells (rhesus/cynomolgus monkey, UniProt A0A5F8A874 23-533)
T3 construct: also called CHO.rhesus/cynoLAG3; rhesus/cynomolgous monkey LAG-3
T3 sequence: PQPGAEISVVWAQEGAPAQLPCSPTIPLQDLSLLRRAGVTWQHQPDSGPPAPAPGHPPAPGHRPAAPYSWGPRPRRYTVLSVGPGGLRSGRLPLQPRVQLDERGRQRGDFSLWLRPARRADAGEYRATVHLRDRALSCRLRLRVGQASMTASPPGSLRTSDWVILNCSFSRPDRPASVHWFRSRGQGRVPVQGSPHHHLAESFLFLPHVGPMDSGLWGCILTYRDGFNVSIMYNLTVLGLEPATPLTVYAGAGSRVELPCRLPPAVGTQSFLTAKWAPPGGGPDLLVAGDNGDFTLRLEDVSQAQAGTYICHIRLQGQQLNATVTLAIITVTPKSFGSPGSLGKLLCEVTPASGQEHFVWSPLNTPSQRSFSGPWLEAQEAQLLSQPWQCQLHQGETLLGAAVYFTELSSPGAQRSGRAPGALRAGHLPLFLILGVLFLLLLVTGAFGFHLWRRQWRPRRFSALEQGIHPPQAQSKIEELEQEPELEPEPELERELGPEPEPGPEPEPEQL


Tests used:
Rhesus Serum Albumin [1] = molecular target: T4, Rhesus Serum Albumin (rhesus, UniProt Q28522 17-600); assay: SPR, Biacore T100; Rhesus Serum Albumin immobilised on CM5, Nanobody as analyte; Langmuir with mass transport
T4 construct: also called RhSA; rhesus albumin
Description: (§1) Kinetic analysis of the Nanobodies was performed by SPR technology, using the Biacore T100 instrument (GE Healthcare). […] After immobilization, surfaces were deactivated with 1M ethanolamine/HCl (pH 8.5). The flow rate during the sensor preparation was set on 5 μl/min.
(§2) Sensorgram processing and data analysis was performed with Biacore T100 Evaluation Software Version 2.0.4 (GE Healthcare). […] Processed curves were evaluated via fitting with the model ‘Langmuir with Mass Transport’.

[2] = molecular target: T5, human PD-1 expressed on cells (human, UniProt Q15116 25-288); assay: flow cytometry competition: blockade of human PD-L2-hFc binding to CHO-K1 cells expressing human PD-1; PE goat anti-human IgG
T5 construct: the transgene used on the cells is not tied to it by number; also called hPD-1; CHO.hPD-1
Description: (§3) Ligand competition assays were performed on human PD-1 over-expressing CHO cells. A Nanobody dilution series was prepared in assay buffer: PBS/10% FBS/0.05% sodium azide. […] 2×10⁴ cells/well were seeded in V-bottom 96-well plates and resuspended in 200 μL/well of the Nanobody/ligand dilution. After 90 minutes incubation at 4° C., the cells were washed with 100 μL/well assay buffer and resuspended in 100 μL/well PE-labeled Goat anti-human IgG (Southern Biotech, 2043-09). Samples were incubated for 30 minutes at 4° C., washed, and resuspended in 100 μL/well of 5 nM TOPRO3 (LifeTechnologies, T3606) solution before analysis on FACS CANTO II (BD).

[3] = molecular target: T5, human PD-1 expressed on cells; assay: cell-based or functional assay
T5 sequence (Q15116 25-288 limits assumed): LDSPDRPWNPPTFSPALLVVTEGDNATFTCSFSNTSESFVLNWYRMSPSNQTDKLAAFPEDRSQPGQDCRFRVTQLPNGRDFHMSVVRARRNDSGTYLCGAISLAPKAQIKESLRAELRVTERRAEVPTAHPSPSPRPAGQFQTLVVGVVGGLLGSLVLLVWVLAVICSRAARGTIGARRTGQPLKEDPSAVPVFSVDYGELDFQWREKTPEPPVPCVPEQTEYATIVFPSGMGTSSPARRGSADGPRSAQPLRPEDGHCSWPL

[4] = molecular target: T5, human PD-1 expressed on cells; assay: flow cytometry on CHO-K1 cells expressing human PD-1; ABH0074 + PE goat anti-mouse
Description: (§4) A Nanobody dilution series was prepared in assay buffer: PBS/10% FBS/0.05% sodium azide. 1×10⁵ cells/well were transferred to a 96-well V-bottom plate and resuspended in 100 μL Nanobody dilution.

Rhesus Serum Albumin [5] = molecular target: T4, Rhesus Serum Albumin; assay: SPR, Biacore T100; Rhesus Serum Albumin immobilised on CM5, Nanobody as analyte; Langmuir with mass transport; remark: listed apart in the source
T4 sequence (Q28522 17-600 limits assumed): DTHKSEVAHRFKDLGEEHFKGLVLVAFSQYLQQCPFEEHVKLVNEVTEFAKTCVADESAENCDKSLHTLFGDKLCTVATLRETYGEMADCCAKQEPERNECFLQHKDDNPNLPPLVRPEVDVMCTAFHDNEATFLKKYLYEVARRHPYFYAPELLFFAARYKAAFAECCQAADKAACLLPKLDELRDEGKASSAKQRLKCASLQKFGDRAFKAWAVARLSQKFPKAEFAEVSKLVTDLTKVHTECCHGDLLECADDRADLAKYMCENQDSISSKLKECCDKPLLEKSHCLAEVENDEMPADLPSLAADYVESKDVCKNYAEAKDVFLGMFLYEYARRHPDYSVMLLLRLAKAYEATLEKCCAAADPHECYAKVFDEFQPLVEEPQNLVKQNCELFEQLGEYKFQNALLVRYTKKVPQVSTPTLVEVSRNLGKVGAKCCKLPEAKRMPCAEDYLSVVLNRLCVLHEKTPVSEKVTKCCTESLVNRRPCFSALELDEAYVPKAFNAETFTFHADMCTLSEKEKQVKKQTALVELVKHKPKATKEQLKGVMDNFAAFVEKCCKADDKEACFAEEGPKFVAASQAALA
Description: as §1, §2

[6] = molecular target: T1, human LAG-3 expressed on cells; assay: cell-based or functional assay
[7] = molecular target: T5, human PD-1 expressed on cells; assay: cell-based or functional assay; remark: listed apart in the source
[8] = molecular target: T5, human PD-1 expressed on cells; assay: flow cytometry competition: blockade of human PD-L1-hFc binding to CHO-K1 cells expressing human PD-1; PE goat anti-human IgG
Description: as §3

[9] = molecular target: extracellular domain of PD-1 (1-199) fused to the PK subunit (human, UniProt Q15116 in part); assay: cell-based or functional assay
[10] = molecular target: T2, extracellular domain of LAG-3 (1-477) …; assay: cell-based or functional assay
MSA = assay: SPR, Biacore T100; MSA block of Table G, Nanobody as analyte
Sequence of MSA (P07724 25-608): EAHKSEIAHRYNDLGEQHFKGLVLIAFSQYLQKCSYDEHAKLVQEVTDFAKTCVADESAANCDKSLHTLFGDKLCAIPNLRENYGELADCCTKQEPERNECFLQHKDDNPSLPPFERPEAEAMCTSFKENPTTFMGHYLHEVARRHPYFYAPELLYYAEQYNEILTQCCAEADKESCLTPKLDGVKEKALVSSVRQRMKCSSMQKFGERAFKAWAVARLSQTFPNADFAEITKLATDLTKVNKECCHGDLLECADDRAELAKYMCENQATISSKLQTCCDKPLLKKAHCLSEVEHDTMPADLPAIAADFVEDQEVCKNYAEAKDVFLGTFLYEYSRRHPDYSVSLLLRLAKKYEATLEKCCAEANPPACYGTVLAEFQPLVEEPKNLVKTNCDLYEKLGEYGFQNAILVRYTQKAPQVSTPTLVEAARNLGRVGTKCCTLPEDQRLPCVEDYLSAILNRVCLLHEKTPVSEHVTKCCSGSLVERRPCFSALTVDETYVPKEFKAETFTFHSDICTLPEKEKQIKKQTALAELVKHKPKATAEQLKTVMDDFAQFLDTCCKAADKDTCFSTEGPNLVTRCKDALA

[11] = molecular target: T5, human PD-1 expressed on cells; assay: flow cytometry competition: blockade of human PD-L1-hFc binding to CHO-K1 cells expressing human PD-1; PE goat anti-human IgG; remark: listed apart in the source
Description: as §3

[12] = molecular target: T3, rhesus/cynoLAG-3 expressed on CHO cells; assay: flow cytometry on CHO-K1 cells expressing rhesus/cyno LAG-3; ABH0074 + PE goat anti-mouse
Description: as §4

[13] = molecular target: T1, human LAG-3 expressed on cells; assay: flow cytometry on CHO-K1 cells expressing human LAG-3; ABH0074 + PE goat anti-mouse
Description: as §4

Binder | Kd (Rhesus Serum Albumin [1]) [nM] | koff (Rhesus Serum Albumin [1]) [s⁻¹] | kon (Rhesus Serum Albumin [1]) [M⁻¹ s⁻¹] | IC50 (read off the curve) [2] [nM] | EC50 (read off the curve), IL-2 promoter luciferase RLU [3] [nM] | EC50 (read off the curve) [4] [nM] | Kd (Rhesus Serum Albumin [5]) [nM] | kon (Rhesus Serum Albumin [5]) [M⁻¹ s⁻¹] | EC50 (read off the curve), IL-2 pg/ml [6] [nM] | EC50 (read off the curve), IL-2 pg/ml [7] [nM] | IC50 (read off the curve) [8] [nM] | EC50 (read off the curve), proximity assay RLU [9] [nM] | EC50 (read off the curve), proximity assay RLU [10] [nM] | koff (MSA) [s⁻¹] | kon (MSA) [M⁻¹ s⁻¹] | IC50 (read off the curve) [11] [nM] | binding result [12] | EC50 (read off the curve) [12] [nM] | EC50 (read off the curve) [13] [nM] | binding result [4]
F023700924 (1PD102C12 (E1D, L11V, A14P, A74S, K83R, I89L)-35GS-F0237611B09 (L11V, A14P, R41P, N43K, A62S, A74S, K83R, V89L)-35GS-ALB11002-A) (bispecific antibody, trivalent Nanobody fusion: one PD-1 module, one LAG-3 module, one anti-albumin module; Pichia or CHO expressed; also called F023700924-CHO-EXP1) DVQLVESGGGVVQPGGSLRLSCAASGSIASIHAMGWFRQAPGKEREFVAVITWSGGITYYADSVKGRFTISRDNSKNTVYLQMNSLRPEDTALYYCAGDKHQSSWYDYWGQGTLVTVSSGGGGSGGGGSGGGGSGGGGSGGGGSGGGGSGGGGSEVQLVESGGGVVQPGGSLRLSCAASGRTFSDYVMGWFRQAPGKEREFVAAISESGGRTHYADSVKGRFTISRDNSKNTLYLQMNSLRPEDTALYYCATTLLWWTSEYAPIKANDYDYWGQGTLVTVSSGGGGSGGGGSGGGGSGGGGSGGGGSGGGGSGGGGS[about 120 residues not spelt out] | 120 | 0.0079 | 69000 | ~1 | ~0.7 | ~3 | 120 | 69000 | ~1 | ~1 | ~2 | ~0.1 | ~0.1 | < 0.6 | > 500000 | ~2 |  |  |  | 
F023700933 (1PD102C12 (E1D, L11V, A14P, A74S, K83R, I89L)-35GS-1PD102C12 (L11V, A14P, A74S, K83R, I89L)-35GS-ALB11002-A) (VHH, monospecific, bivalent anti-human PD-1 control with anti-albumin module; also called Bivalent SO 1PD102C12 + ALB11002) DVQLVESGGGVVQPGGSLRLSCAASGSIASIHAMGWFRQAPGKEREFVAVITWSGGITYYADSVKGRFTISRDNSKNTVYLQMNSLRPEDTALYYCAGDKHQSSWYDYWGQGTLVTVSSGGGGSGGGGSGGGGSGGGGSGGGGSGGGGSGGGGSEVQLVESGGGVVQPGGSLRLSCAASGSIASIHAMGWFRQAPGKEREFVAVITWSGGITYYADSVKGRFTISRDNSKNTVYLQMNSLRPEDTALYYCAGDKHQSSWYDYWGQGTLVTVSSGGGGSGGGGSGGGGSGGGGSGGGGSGGGGSGGGGS[about 120 residues not spelt out] |  |  |  | ~0.4 |  | ~2 |  |  |  |  | ~0.4 |  |  |  |  | ~0.5 | no binding (tested: 1e-7 M) |  |  | 
F023700962 (F0237611B09 (E1D, L11V, A14P, R41P, N43K, A62S, A74S, K83R, V89L)-35GS-F0237611B09 (L11V, A14P, R41P, N43K, A62S, A74S, K83R, V89L)-35GS-ALB11002-A) (VHH, monospecific, bivalent anti-human LAG-3 control with anti-albumin module; also called Bivalent SO 611B09 + ALB11002) DVQLVESGGGVVQPGGSLRLSCAASGRTFSDYVMGWFRQAPGKEREFVAAISESGGRTHYADSVKGRFTISRDNSKNTLYLQMNSLRPEDTALYYCATTLLWWTSEYAPIKANDYDYWGQGTLVTVSSGGGGSGGGGSGGGGSGGGGSGGGGSGGGGSGGGGSEVQLVESGGGVVQPGGSLRLSCAASGRTFSDYVMGWFRQAPGKEREFVAAISESGGRTHYADSVKGRFTISRDNSKNTLYLQMNSLRPEDTALYYCATTLLWWTSEYAPIKANDYDYWGQGTLVTVSSGGGGSGGGGSGGGGSGGGGSGGGGSGGGGSGGGGS[about 120 residues not spelt out] |  |  |  |  |  |  |  |  |  |  |  |  |  |  |  |  |  | ~0.3 | ~0.2 | no binding (tested: about 5e-7 M)

Like-named read-outs stand apart in the source and are kept apart here.
